Measured values as given in the supplement of paper PMC11246515.
± gives the standard deviation of the averaged measurements.

Experiment: total protein half-life in vivo (active degradation + dilution); higher = more stable protein
[1] = E. coli NCM3722 delta-clpP delta-lon delta-hslV, growth: N-lim chemostat, doubling time 6 h
[2] = E. coli NCM3722 delta-lon, growth: N-lim chemostat, doubling time 6 h
[3] = E. coli NCM3722 delta-clpP, growth: N-lim chemostat, doubling time 6 h
[4] = E. coli NCM3722 delta-smpB, growth: N-lim chemostat, doubling time 6 h
[5] = wild type E. coli NCM3722, growth: C-lim chemostat, doubling time 3 h
[6] = wild type E. coli NCM3722, growth: C-lim chemostat, doubling time 6 h
[7] = wild type E. coli NCM3722, growth: C-lim chemostat, doubling time 12 h
[8] = E. coli NCM3722 delta-hslV, growth: N-lim chemostat, doubling time 6 h
[9] = wild type E. coli NCM3722, growth: N-lim chemostat, doubling time 6 h
[10] = wild type E. coli NCM3722, growth: N-lim chemostat, doubling time 12 h
[11] = wild type E. coli NCM3722, growth: P-lim chemostat, doubling time 6 h
[12] = wild type E. coli NCM3722, growth: P-lim chemostat, doubling time 12 h

## MAQLSLQHIQKIYDNQVHVVKDFNLEIADKEFIVFVGPSGCGKSTTLRMIAGLEEISGGDLLIDGKRMNDVPAKARNIAMVFQNYALYPHMTVYDNMAFGLKMQKIAKEVIDERVNWAAQILGLREYLKRKPGALSGGQRQRVALGRAIVREAGVFLMDEPLSNLDAKLRVQMRAEISKLHQKLNTTMIYVTHDQTEAMTMATRIVIMKDGIVQQVGAPKTVYNQPANMFVSGFIGSPAMNFIRGTIDGDKFVTETLKLTIPEEKLAVLKTQESLHKPIVMGIRPEDIHPDAQEENNISAKISVAELTGAEFMLYTTVGGHELVVRAGALNDYHAGENITIHFDMTKCHFFDAETEIAIR
[1]
  total protein half-life in vivo: 4.89 ± 1.6 h
[2]
  total protein half-life in vivo: 3.29 h

## MINRIRVVTLLVMVLGVFALLQLISGSLFFSSLHHSQKSFVVSNQLREQQGELTSTWDLMLQTRINLSRSAVRMMMDSSNQQSNAKVELLDSARKTLAQAATHYKKFKSMAPLPEMVATSRNIDEKYKNYYTALTELIDYLDYGNTGAYFAQPTQGMQNAMGEAFAQYALSSEKLYRDIVTDNADDYRFAQWQLAVIALVVVLILLVAWYGIRRMLLTPLAKIIAHIREIAGGNLANTLTIDGRSEMGDLAQSVSHMQRSLTDTVTHVREGSDAIYAGTREIAAGNTDLSSRTEQQASALEETAASMEQLTATVKQNADNARQASQLAQSASDTAQHGGKVVDGVVKTMHEIADSSKKIADIISVIDGIAFQTNILALNAAVEAARAGEQGRGFAVVAGEVRNLASRSAQAAKEIKALIEDSVSRVDTGSVLVESAGETMNNIVNAVTRVTDIMGEIASASDEQSRGIDQVALAVSEMDRVTQQNASLVQESAAAAAALEEQASRLTQAVSAFRLAASPLTNKPQTPSRPASEQPPAQPRLRIAEQDPNWETF
[3]
  total protein half-life in vivo: 7.08 h
[4]
  total protein half-life in vivo: > 8 h
[5]
  total protein half-life in vivo: 2.39 ± 0.025 h
[6]
  total protein half-life in vivo: 4.03 ± 0.12 h
[7]
  total protein half-life in vivo: 5.81 ± 0.27 h

## MKRMLINATQQEELRVALVDGQRLYDLDIESPGHEQKKANIYKGKITRIEPSLEAAFVDYGAERHGFLPLKEIAREYFPANYSAHGRPNIKDVLREGQEVIVQIDKEERGNKGAALTTFISLAGSYLVLMPNNPRAGGISRRIEGDDRTELKEALASLELPEGMGLIVRTAGVGKSAEALQWDLSFRLKHWEAIKKAAESRPAPFLIHQESNVIVRAFRDYLRQDIGEILIDNPKVLELARQHIAALGRPDFSSKIKLYTGEIPLFSHYQIESQIESAFQREVRLPSGGSIVIDSTEALTAIDINSARATRGGDIEETAFNTNLEAADEIARQLRLRDLGGLIVIDFIDMTPVRHQRAVENRLREAVRQDRARIQISHISRFGLLEMSRQRLSPSLGESSHHVCPRCSGTGTVRDNESLSLSILRLIEEEALKENTQEVHAIVPVPIASYLLNEKRSAVNAIETRQDGVRCVIVPNDQMETPHYHVLRVRKGEETPTLSYMLPKLHEEAMALPSEEEFAERKRPEQPALATFAMPDVPPAPTPAEPAAPVVAPAPKAAPATPAAPAQPGLLSRFFGALKALFSGGEETKPTEQPAPKAEAKPERQQDRRKPRQNNRRDRNERRDTRSERTEGSDNREENRRNRRQAQQQTAETRESRQQAEVTEKARTADEQQAPRRERSRRRNDDKRQAQQEAKALNVEEQSVQETEQEERVRPVQPRRKQRQLNQKVRYEQSVAEEAVVAPVVEETVAAEPIVQEAPAPRTELVKVPLPVVAQTAPEQQEENNADNRDNGGMPRRSRRSPRHLRVSGQRRRRYRDERYPTQSPMPLTVACASPELASGKVWIRYPIVRPQDVQVEEQREQEEVHVQPMVTEVPVAAAIEPVVSAPVVEEVAGVVEAPVQVAEPQPEVVETTHPEVIAAAVTEQPQVITESDVAVAQEVAEQAEPVVEPQEETADIEEVVETAEVVVAEPEVVAQPAAPVVAEVAAEVETVAAVEPEVTVEHNHATAPMTRAPAPEYVPEAPRHSDWQRPTFAFEGKGAAGGHTATHHASAAPARPQPVE
[1]
  total protein half-life in vivo: 6.39 ± 0.14 h
[3]
  total protein half-life in vivo: 6.74 ± 1.4 h
[8]
  total protein half-life in vivo: 5.1 ± 0.47 h
[2]
  total protein half-life in vivo: 5.65 ± 0.2 h
[4]
  total protein half-life in vivo: 4.9 ± 0.26 h
[5]
  total protein half-life in vivo: 2.91 ± 0.021 h
[6]
  total protein half-life in vivo: 5.69 ± 0.2 h
[7]
  total protein half-life in vivo: 10 ± 0.74 h
[9]
  total protein half-life in vivo: 5.181 ± 0.0083 h
[10]
  total protein half-life in vivo: 8.68 ± 0.14 h
[11]
  total protein half-life in vivo: 5.532 ± 0.034 h
[12]
  total protein half-life in vivo: 10.8 ± 0.21 h

## MPKYRSATTTHGRNMAGARALWRATGMTDADFGKPIIAVVNSFTQFVPGHVHLRDLGKLVAEQIEAAGGVAKEFNTIAVDDGIAMGHGGMLYSLPSRELIADSVEYMVNAHCADAMVCISNCDKITPGMLMASLRLNIPVIFVSGGPMEAGKTKLSDQIIKLDLVDAMIQGADPKVSDSQSDQVERSACPTCGSCSGMFTANSMNCLTEALGLSQPGNGSLLATHADRKQLFLNAGKRIVELTKRYYEQNDESALPRNIASKAAFENAMTLDIAMGGSTNTVLHLLAAAQEAEIDFTMSDIDKLSRKVPQLCKVAPSTQKYHMEDVHRAGGVIGILGELDRAGLLNRDVKNVLGLTLPQTLEQYDVMLTQDDAVKNMFRAGPAGIRTTQAFSQDCRWDTLDDDRANGCIRSLEHAYSKDGGLAVLYGNFAENGCIVKTAGVDDSILKFTGPAKVYESQDDAVEAILGGKVVAGDVVVIRYEGPKGGPGMQEMLYPTSFLKSMGLGKACALITDGRFSGGTSGLSIGHVSPEAASGGSIGLIEDGDLIAIDIPNRGIQLQVSDAELAARREAQDARGDKAWTPKNRERQVSFALRAYASLATSADKGAVRDKSKLGG
[1]
  total protein half-life in vivo: 4.39 ± 0.68 h
[3]
  total protein half-life in vivo: 3.61 ± 0.41 h
[8]
  total protein half-life in vivo: 3.83 ± 0.13 h
[2]
  total protein half-life in vivo: 4.07 ± 0.3 h
[4]
  total protein half-life in vivo: 3.89 ± 0.054 h
[5]
  total protein half-life in vivo: 3.1 ± 0.11 h
[6]
  total protein half-life in vivo: 5.31 ± 0.14 h
[7]
  total protein half-life in vivo: 9.43 ± 1.9 h
[9]
  total protein half-life in vivo: 3.833 ± 0.034 h
[10]
  total protein half-life in vivo: 5.72 ± 0.095 h
[11]
  total protein half-life in vivo: 5.714 ± 0.0088 h
[12]
  total protein half-life in vivo: 10.9 ± 0.4 h

## MRIILLGAPGAGKGTQAQFIMEKYGIPQISTGDMLRAAVKSGSELGKQAKDIMDAGKLVTDELVIALVKERIAQEDCRNGFLLDGFPRTIPQADAMKEAGINVDYVLEFDVPDELIVDRIVGRRVHAPSGRVYHVKFNPPKVEGKDDVTGEELTTRKDDQEETVRKRLVEYHQMTAPLIGYYSKEAEAGNTKYAKVDGTKPVAEVRADLEKILG
[1]
  total protein half-life in vivo: 5.01 ± 0.068 h
[3]
  total protein half-life in vivo: 5.08 ± 0.33 h
[8]
  total protein half-life in vivo: 5.24 ± 0.55 h
[2]
  total protein half-life in vivo: 5.64 ± 0.34 h
[4]
  total protein half-life in vivo: 4.61 ± 0.41 h
[5]
  total protein half-life in vivo: 3.13 ± 0.17 h
[6]
  total protein half-life in vivo: 6.18 ± 0.47 h
[7]
  total protein half-life in vivo: 11.3 ± 0.76 h
[9]
  total protein half-life in vivo: 4.73 ± 0.35 h
[10]
  total protein half-life in vivo: 8.562 ± 0.056 h
[11]
  total protein half-life in vivo: 5.6 ± 0.35 h
[12]
  total protein half-life in vivo: 12.3 ± 0.84 h

## MRTEYCGQLRLSHVGQQVTLCGWVNRRRDLGSLIFIDMRDREGIVQVFFDPDRADALKLASELRNEFCIQVTGTVRARDEKNINRDMATGEIEVLASSLTIINRADVLPLDSNHVNTEEARLKYRYLDLRRPEMAQRLKTRAKITSLVRRFMDDHGFLDIETPMLTKATPEGARDYLVPSRVHKGKFYALPQSPQLFKQLLMMSGFDRYYQIVKCFRDEDLRADRQPEFTQIDVETSFMTAPQVREVMEALVRHLWLEVKGVDLGDFPVMTFAEAERRYGSDKPDLRNPMELTDVADLLKSVEFAVFAGPANDPKGRVAALRVPGGASLTRKQIDEYGNFVKIYGAKGLAYIKVNERAKGLEGINSPVAKFLNAEIIEDILDRTAAQDGDMIFFGADNKKIVADAMGALRLKVGKDLGLTDESKWAPLWVIDFPMFEDDGEGGLTAMHHPFTSPKDMTAAELKAAPENAVANAYDMVINGYEVGGGSVRIHNGDMQQTVFGILGINEEEQREKFGFLLDALKYGTPPHAGLAFGLDRLTMLLTGTDNIRDVIAFPKTTAAACLMTEAPSFANPTALAELSIQVVKKAENN
[1]
  total protein half-life in vivo: 6 ± 0.099 h
[3]
  total protein half-life in vivo: 5.45 ± 0.059 h
[8]
  total protein half-life in vivo: 5.342 ± 0.032 h
[2]
  total protein half-life in vivo: 5.41 ± 0.68 h
[4]
  total protein half-life in vivo: 5.358 ± 0.01 h
[5]
  total protein half-life in vivo: 3.04 ± 0.18 h
[6]
  total protein half-life in vivo: 5.909 ± 0.023 h
[7]
  total protein half-life in vivo: 12.2 ± 2.5 h
[9]
  total protein half-life in vivo: 5.2 ± 0.1 h
[10]
  total protein half-life in vivo: 11.4 ± 3.1 h
[11]
  total protein half-life in vivo: 6.227 ± 0.049 h
[12]
  total protein half-life in vivo: 11.8 ± 0.74 h

## MTDKRKDGSGKLLYCSFCGKSQHEVRKLIAGPSVYICDECVDLCNDIIREEIKEVAPHRERSALPTPHEIRNHLDDYVIGQEQAKKVLAVAVYNHYKRLRNGDTSNGVELGKSNILLIGPTGSGKTLLAETLARLLDVPFTMADATTLTEAGYVGEDVENIIQKLLQKCDYDVQKAQRGIVYIDEIDKISRKSDNPSITRDVSGEGVQQALLKLIEGTVAAVPPQGGRKHPQQEFLQVDTSKILFICGGAFAGLDKVISHRVETGSGIGFGATVKAKSDKASEGELLAQVEPEDLIKFGLIPEFIGRLPVVATLNELSEEALIQILKEPKNALTKQYQALFNLEGVDLEFRDEALDAIAKKAMARKTGARGLRSIVEAALLDTMYDLPSMEDVEKVVIDESVIDGQSKPLLIYGKPEAQQASGE [P0A6H1]
[1]
  total protein half-life in vivo: 5.964 ± 0.055 h
[3]
  total protein half-life in vivo: 5.09 ± 0.56 h
[8]
  total protein half-life in vivo: 1.47 ± 0.087 h
[2]
  total protein half-life in vivo: 1.491 ± 0.0088 h
[4]
  total protein half-life in vivo: 1.387 ± 0.0025 h
[5]
  total protein half-life in vivo: 1.47 ± 0.017 h
[6]
  total protein half-life in vivo: 2.02 ± 0.24 h
[7]
  total protein half-life in vivo: 2.24 ± 0.37 h
[9]
  total protein half-life in vivo: 1.63 ± 0.065 h
[10]
  total protein half-life in vivo: 1.96 ± 0.22 h
[11]
  total protein half-life in vivo: 2.11 ± 0.12 h
[12]
  total protein half-life in vivo: 3.36 ± 0.35 h
